In the supplement of paper PMC8728848:
The other results are listed elsewhere or left out.

Tests used:
Assay in all cases: glycan array binding signal (z-score within array); higher = stronger binding
Settings in all cases: glycan notation: IUPAC condensed, linker removed
[1] = target: GlcNAc(a1-6)Gal(b1-4)GlcNAc
Outline: (§1)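 Glycan array binding is given as a within-array Z-score, which can be read as non-binding when negative. The arrays, 3228 of them, came from the Consortium for Functional Glycomics database and were retained only where the protein sequence was available. Z-scores were averaged across arrays of the same protein sequence at different concentrations or buffers and across linkers.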

[2] = target: GlcNAc(b1-2)Gal(b1-3)GalNAc
Outline: as §1

[3] = target: GlcNAc(b1-2)Man(a1-3)[GlcNAc(b1-2)Man(a1-6)]Man(b1-4)GlcNAc(b1-4)GlcNAc
Outline: as §1

[4] = target: GlcNAc(b1-2)Man(a1-3)[GlcNAc(b1-2)Man(a1-6)]Man(b1-4)GlcNAc(b1-4)[Fuc(a1-6)]GlcNAc
Outline: as §1

[5] = target: GlcNAc(b1-2)Man(a1-3)[GlcNAc(b1-4)][GlcNAc(b1-2)Man(a1-6)]Man(b1-4)GlcNAc(b1-4)GlcNAc
Outline: as §1

[6] = target: GlcNAc(b1-2)Man(a1-3)[GlcNAc(b1-4)][GlcNAc(b1-2)Man(a1-6)]Man(b1-4)GlcNAc(b1-4)[Fuc(a1-6)]GlcNAc
Outline: as §1

[7] = target: GlcNAc(b1-2)[GlcNAc(b1-4)]Man(a1-3)[GlcNAc(b1-2)Man(a1-6)]Man(b1-4)GlcNAc(b1-4)GlcNAc
Outline: as §1

[8] = target: GlcNAc(b1-2)[GlcNAc(b1-4)]Man(a1-3)[GlcNAc(b1-4)][GlcNAc(b1-2)Man(a1-6)]Man(b1-4)GlcNAc(b1-4)GlcNAc
Outline: as §1

[9] = target: GlcNAc(b1-2)[GlcNAc(b1-4)]Man(a1-3)[GlcNAc(b1-4)][GlcNAc(b1-2)[GlcNAc(b1-6)]Man(a1-6)]Man(b1-4)GlcNAc(b1-4)GlcNAc
Outline: as §1

[10] = target: GlcNAc(b1-2)[GlcNAc(b1-4)]Man(a1-3)[GlcNAc(b1-4)][GlcNAc(b1-2)[GlcNAc(b1-6)]Man(a1-6)]Man(b1-4)GlcNAc(b1-4)[Fuc(a1-6)]GlcNAc
Outline: as §1

[11] = target: GlcNAc(b1-2)[GlcNAc(b1-6)]Man(a1-6)[GlcNAc(b1-2)Man(a1-3)]Man(b1-4)GlcNAc(b1-4)GlcNAc
Outline: as §1

[12] = target: GlcNAc(b1-2)[GlcNAc(b1-6)]Man(a1-6)[GlcNAc(b1-2)Man(a1-3)]Man(b1-4)GlcNAc(b1-4)[Fuc(a1-6)]GlcNAc
Outline: as §1

[13] = target: GlcNAc(b1-2)[GlcNAc(b1-6)]Man(a1-6)[GlcNAc(b1-4)][GlcNAc(b1-2)Man(a1-3)]Man(b1-4)GlcNAc(b1-4)GlcNAc
Outline: as §1

[14] = target: GlcNAc(b1-3)Fuc
Outline: as §1

[15] = target: GlcNAc(b1-3)Gal
Outline: as §1

[16] = target: GlcNAc(b1-3)Gal(b1-3)GalNAc
Outline: as §1

[17] = target: GlcNAc(b1-3)Gal(b1-4)Glc
Outline: as §1

[18] = target: GlcNAc(b1-3)Gal(b1-4)GlcNAc
Outline: as §1

[19] = target: GlcNAc(b1-3)Gal(b1-4)GlcNAc(b1-2)Man(a1-3)[GlcNAc(b1-3)Gal(b1-4)GlcNAc(b1-2)Man(a1-6)]Man(b1-4)GlcNAc(b1-4)GlcNAc
Outline: as §1

[20] = target: GlcNAc(b1-3)Gal(b1-4)GlcNAc(b1-2)Man(a1-3)[GlcNAc(b1-3)Gal(b1-4)GlcNAc(b1-2)Man(a1-6)]Man(b1-4)GlcNAc(b1-4)[Fuc(a1-6)]GlcNAc
Outline: as §1

[21] = target: GlcNAc(b1-3)Gal(b1-4)GlcNAc(b1-2)[GlcNAc(b1-3)Gal(b1-4)GlcNAc(b1-6)]Man(a1-6)[GlcNAc(b1-3)Gal(b1-4)GlcNAc(b1-2)Man(a1-3)]Man(b1-4)GlcNAc(b1-4)GlcNAc
Outline: as §1

[22] = target: GlcNAc(b1-3)Gal(b1-4)GlcNAc(b1-3)Gal(b1-4)GlcNAc
Outline: as §1

[23] = target: GlcNAc(b1-3)Gal(b1-4)GlcNAc(b1-3)Gal(b1-4)GlcNAc(b1-2)Man(a1-3)[GlcNAc(b1-3)Gal(b1-4)GlcNAc(b1-3)Gal(b1-4)GlcNAc(b1-2)Man(a1-6)]Man(b1-4)GlcNAc(b1-4)GlcNAc
Outline: as §1

[24] = target: GlcNAc(b1-3)Gal(b1-4)GlcNAc(b1-3)Gal(b1-4)GlcNAc(b1-2)Man(a1-3)[GlcNAc(b1-3)Gal(b1-4)GlcNAc(b1-3)Gal(b1-4)GlcNAc(b1-2)Man(a1-6)]Man(b1-4)GlcNAc(b1-4)[Fuc(a1-6)]GlcNAc
Outline: as §1

[25] = target: GlcNAc(b1-3)Gal(b1-4)GlcNAc(b1-3)Gal(b1-4)GlcNAc(b1-2)[GlcNAc(b1-3)Gal(b1-4)GlcNAc(b1-3)Gal(b1-4)GlcNAc(b1-6)]Man(a1-6)[GlcNAc(b1-3)Gal(b1-4)GlcNAc(b1-3)Gal(b1-4)GlcNAc(b1-2)Man(a1-3)]Man(b1-4)GlcNAc(b1-4)[Fuc(a1-6)]GlcNAc
Outline: as §1

[26] = target: GlcNAc(b1-3)Gal(b1-4)GlcNAc(b1-3)Gal(b1-4)GlcNAc(b1-3)Gal(b1-4)GlcNAc(b1-2)Man(a1-3)[GlcNAc(b1-3)Gal(b1-4)GlcNAc(b1-3)Gal(b1-4)GlcNAc(b1-3)Gal(b1-4)GlcNAc(b1-2)Man(a1-6)]Man(b1-4)GlcNAc(b1-4)GlcNAc
Outline: as §1

[27] = target: GlcNAc(b1-3)Gal(b1-4)GlcNAc(b1-3)Gal(b1-4)GlcNAc(b1-3)Gal(b1-4)GlcNAc(b1-2)Man(a1-3)[GlcNAc(b1-3)Gal(b1-4)GlcNAc(b1-3)Gal(b1-4)GlcNAc(b1-3)Gal(b1-4)GlcNAc(b1-2)Man(a1-6)]Man(b1-4)GlcNAc(b1-4)[Fuc(a1-6)]GlcNAc
Outline: as §1

[28] = target: GlcNAc(b1-3)Gal(b1-4)GlcNAc(b1-3)Gal(b1-4)GlcNAc(b1-3)Gal(b1-4)GlcNAc(b1-2)[GlcNAc(b1-3)Gal(b1-4)GlcNAc(b1-3)Gal(b1-4)GlcNAc(b1-3)Gal(b1-4)GlcNAc(b1-6)]Man(a1-6)[GlcNAc(b1-3)Gal(b1-4)GlcNAc(b1-3)Gal(b1-4)GlcNAc(b1-3)Gal(b1-4)GlcNAc(b1-2)Man(a1-3)]Man(b1-4)GlcNAc(b1-4)[Fuc(a1-6)]GlcNAc
Outline: as §1

[29] = target: GlcNAc(b1-3)Gal(b1-4)GlcNAc(b1-3)Gal(b1-4)GlcNAc(b1-3)Gal(b1-4)GlcNAc(b1-3)Gal(b1-4)GlcNAc(b1-2)Man(a1-3)[GlcNAc(b1-3)Gal(b1-4)GlcNAc(b1-3)Gal(b1-4)GlcNAc(b1-3)Gal(b1-4)GlcNAc(b1-3)Gal(b1-4)GlcNAc(b1-2)Man(a1-6)]Man(b1-4)GlcNAc(b1-4)GlcNAc
Outline: as §1

[30] = target: GlcNAc(b1-3)Gal(b1-4)GlcNAc(b1-3)Gal(b1-4)GlcNAc(b1-3)Gal(b1-4)GlcNAc(b1-3)Gal(b1-4)GlcNAc(b1-2)Man(a1-3)[GlcNAc(b1-3)Gal(b1-4)GlcNAc(b1-3)Gal(b1-4)GlcNAc(b1-3)Gal(b1-4)GlcNAc(b1-3)Gal(b1-4)GlcNAc(b1-2)Man(a1-6)]Man(b1-4)GlcNAc(b1-4)[Fuc(a1-6)]GlcNAc
Outline: as §1

B1: CvGal2 (Crassostrea virginica) (protein)
chain: MGSSHHHHHHSSGLVPRGSHMRIREAGKRKDTTKVYQIPDGLFPGQQVMLRGRVPWGSKSFSINFSATPRMGEGDILFHLNPRPSEGVCIRNALLNGSWGAEEKWQPYFPFDDGRSFSVKIEVTNDAFRTFVNGRPFVDFLHRTDFRAGKYLTLREGAEYYDVIFQSKPNIPLTTAIHNGMRIGKTIRIRGMCTAQDGFAINFNDNRNNIYFHFNARPAQRTVVRNSYFGSWGNEETAISKEFPFYPFLYFYASFVCMEDKFAVYVNDEHFIDFAHRGNPNNISVLQIKGSVNVLDTECLEPMGEDAMTEVDSGLENGDLFVLNGLMTERGKTFAVNFLNGFTENDDIALHFNPRKSTGEVVLNSRYGGAWQSEEKVALPGVFWSNRPLQVKVETKRNKFKIYVNGVDLAKYKIRGNVEDVHAVQVKGDVFLLETLLLKRLMKPVWERLTGGIRPGTWVTLQGTPKKNWQQFVVNFALDDTLDGDIAFHFNVRRGARQVVRNHRQSGAWGREETVTPFFAFDSEATFEIVFFVKEEKFLIYFNGKLFFEFVHRVPVERITHIYMDGDCNFYEPEVVI
[1]
  glycan array binding signal (z-score): -0.343
[2]
  glycan array binding signal (z-score): -0.334
[3]
  glycan array binding signal (z-score): -0.325
[4]
  glycan array binding signal (z-score): -0.336
[5]
  glycan array binding signal (z-score): -0.335
[6]
  glycan array binding signal (z-score): -0.332
[7]
  glycan array binding signal (z-score): -0.336
[8]
  glycan array binding signal (z-score): -0.339
[9]
  glycan array binding signal (z-score): -0.329
[10]
  glycan array binding signal (z-score): -0.32
[11]
  glycan array binding signal (z-score): -0.338
[12]
  glycan array binding signal (z-score): -0.332
[13]
  glycan array binding signal (z-score): -0.33
[14]
  glycan array binding signal (z-score): -0.328
[15]
  glycan array binding signal (z-score): -0.333
[16]
  glycan array binding signal (z-score): -0.316
[17]
  glycan array binding signal (z-score): 0.167
[18]
  glycan array binding signal (z-score): -0.334
[19]
  glycan array binding signal (z-score): -0.303
[20]
  glycan array binding signal (z-score): -0.193
[21]
  glycan array binding signal (z-score): 0.452
[22]
  glycan array binding signal (z-score): -0.343
[23]
  glycan array binding signal (z-score): -0.19
[24]
  glycan array binding signal (z-score): -0.189
[25]
  glycan array binding signal (z-score): 0.079
[26]
  glycan array binding signal (z-score): -0.042
[27]
  glycan array binding signal (z-score): -0.215
[28]
  glycan array binding signal (z-score): 0.352
[29]
  glycan array binding signal (z-score): -0.16
[30]
  glycan array binding signal (z-score): -0.163
